Experimental data reported in the RNAGym collection of RNA variant scans (doi:10.1093/nar/gkz1192).
Read counts are not given, so values of variants with three or more changes are uncertain.

B1: CPEB3 Ribozyme (parent)
chain: UAACAGGGGGCCACAGCAGAAGCGUUCACGUCGCAGCCCCUGUCAGAUUCUGGUGAAUCUGCGAAUUCUGCUGUAUAUCUC

Variants of: B1
Assay: self-cleavage, relative activity (ratio to wild type); higher = more cleavage; in vitro, sequencing
How it was run: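 Relative activity was defined as the cleaved/total read fraction for a variant divided by the same fraction for the unmutated ribozyme. CPEB3 self-cleaving ribozyme libraries were made by rounds of error-prone PCR, barcoded, and transcribed in vitro with T7 RNA polymerase for 5 hours at 37°C, and cleavage ran through transcription plus a 15 min DNase I step before EDTA. Illumina sequencing of template-switched reverse transcripts gave the reads, and DNA sequencing mapped the barcodes. Averages come from three batches, using variants with at least 5 reads.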
For UAACAGGGGGCCACAGCAGAAUCGUUCACGCCGCAGCCCCUGUCAGAUUUUGGUGAAUCUGCGAAUUCUGCUGUAUAUCUC, the self-cleavage was 0.13. UAACAGGGGGCCACAGCAGAAACGUUCACGUCGCAGCCCCUGUCAGAUUCUGGCGAAUCUGCGAAUUCUGCUGUAGGUCUC showed a self-cleavage of 0.09. Work on UAACAGGGGGCCACAGCAGAAUCGCUCUCGUCGCAGCCCCUGUCAGAUUCUGGUGAAUCUGCGAACUCUGCUGUAUAUCUC yielded a self-cleavage of 0.12. Variant UAACAGGGGGCCACAGCAGAAACGUUCACGUCGCAGCCCCUGCCAGAUUCUGGUGAAUCUGCGAAUUCUGCAGUAUAUCUC has a self-cleavage of 0.14. UAACAGGGGGCCACAGCAGAAGAAUUCACGUCGCAGCCCCUGUCAGAUUCUGGUGAAUAUGCGAAUUCUGCUGUAUACCUC gave a self-cleavage of 0.05. With UAACAGGGGGCCACAGCAGAAUCGUUCACAUCGCAGCCCCUGUCAGAUUCUGGUGAAUCUGCGAAUUCUGCAGUAUAUCUC the self-cleavage was 0.23. In the case of UAACAGGGGGCCACAGCAGAAUCGUCCACGUUGCAGCCCCCGUCAGAUUCAGGUGAAUCUGCGAAUUCCGCAGUAUAUCUC, the self-cleavage is reported as 0.07. Variant UAACAGGGGGCCACAGCAGAAACGUUCACGUCGCAGCCCCUGGCAGAUUCUGGUGAGUCUGGGAAUUCUGCUGUAUGUCUC has a self-cleavage of 0.16. With UAACAGGGGGCCACAGCAGAAUCGUUCGCGUCGCAGCCCCUGUCAGAUCCUGGCGAAUCAGCGGAUUCUGCUGUAUAUCUC the self-cleavage was 0.05. For UAACAGGGGGCCACAGCAGAACCGUUCACGUCGCAGCCUCUGUCAGAUUCUGGUGAGUCUGCGAAUUCUGCUGUAUAUCUC, the self-cleavage was 0.12. With UAACAGGGGGCCACAGCAGAAGAGUUCACGUCGGAGCCCCUGUCAGAUUCUGGUGAAUCUGCGAAUUCUGCUGUGUAUCUC the self-cleavage was 0.15. For UAACAGGGGGCCACAGCAGAAUCGUUCACGUCACAGCCCCUGUCAGAUUCUGGUGAAUCUGCGAAUUCUGCUGGUUAUCUC, the self-cleavage was 0.17. UAACAGGGGGCCACAGCAGAAACGUUCACGACGCAGCCCCUGUCGGAUUCUGGUGUAUCUACGAAUUCCGCUGUAUAUCUC gave a self-cleavage of 0.08. UAACAGGGGGCCACAGCAGAAGAGUUCACGUAGCAGCCCCUGUCGGACUCUGGUGAAUCUGCGAAUUCUGCUGUAUAUCUC gave a self-cleavage of 0.13. UAACAGGGGGCCACAGCAGAAGAGUUCACGUCGCAGCCCUUGUCAGUUUCUGGUGAAUCUGCGAAUUCUGCCGUAUAUCUC gave a self-cleavage of 0.08. For UAACAGGGGGCCACAGCAGAAGAGUUCACGUCGCAGCACCUGUCAGAUUCUGGUGGAUCUGCGAAUUCUGCUGUAUAUCCC, the self-cleavage was 0.22. In the case of UAACAGGGGGCCACAGCAGAAGAGUUCGCGUCGCAGCCCCUGUCAGAUUCUGGUGAAUCUGCGAAUUCUGCGGUAUAUCUC, the self-cleavage is reported as 0.14. UAACAGGGGGCCACAGCAGAAACGUUCACGUCGCAGCCCCUGUCAGAUCCUGGUGAAUCUGCGAAUUCAGCUGUAUAUCUC showed a self-cleavage of 0.28. For UAACAGGGGGCCACAGCAGAACCGUUCACGUCGCAGCCCCAGUCAGAUUCUGGGGAAUCUGCGAAUUCUGCUGUAUAUCUC, the self-cleavage was 0.12. For UAACAGGGGGCCACAGCAGAACCGUUCACGUCGCAGCCCCUGUCAGUUUCUGGUGAAUCUGCGAAUUCUGCUGAAUAUCUC, the self-cleavage was 0.16. For UAACAGGGGGCCACAGCAGAAUCGUCCACGUCGCAGCCCCUGUCUGAUUCUGGCGGAUCUGCGAAUUCAGCUGUACAUCUC, the self-cleavage was 0.14. In the case of UAACAGGGGGCCACAGCAGAAUCGUUCGCGUCGCAGCCCCUGUCAGAUUCUGGUGAAUCUGCGAAUACUGCUGUAUAUCUC, the self-cleavage is reported as 0.06. UAACAGGGGGCCACAGCAGAAUCGUUCACGUCGCAGCCCCUGUCAGAUUCUGGCGAAUCCGCGAAUUCUGCUGUAUAUCUC showed a self-cleavage of 0.06. In the case of UAACAGGGGGCCACAGCAGAAACGUUCACGUCGCAGCCCCUGUCAGAUUCUGGUGAAUCAGCAAAUCCCGCUGUAUAUCUC, the self-cleavage is reported as 0.08. For UAACAGGGGGCCACAGCAGAAACGUUCACGCCGCGGCCCCUGUCAGAUCCUGGUGAAUCCGCGAAUUCUGCUGUAUAUCUC, the self-cleavage was 0.07. Work on UAACAGGGGGCCACAGCAGAAUCGUCCACGUCGCGGCCCCUGUCUGAUCCUGGUGAAUCUGCGAAUUCUGCUGUAUAUCUC yielded a self-cleavage of 0.13. UAACAGGGGGCCACAGCAGAAUCGUUCACGUCGCAGCCCCUGUCAGAUUCUGGCAAAUCUGCGAAUUCUGCUGUAUAUCUC gave a self-cleavage of 0.15. UAACAGGGGGCCACAGCAGAAACGUUCACGUCGCAGCCCCUGUCAGAUUCUGGAGAAUCUGCGAGUUCUGCUGUAUAUCUC gave a self-cleavage of 0.16. For UAACAGGGGGCCACAGCAGAAACGUCCACGUCGCAGCCCCCGUCGGAUUCUGGUGAGUCUGCGAAUUCUGCUGUUUAUCUC, the self-cleavage was 0.16. With UAACAGGGGGCCACAGCAGAAUCGUUCACGUCGCAGCCCCUGUCAGGUGCUGGUGGAUCGGCGAAUCCUGCCGUAUAUCUC the self-cleavage was 0.06. For UAACAGGGGGCCACAGCAGAAGAGUUCACGUCGCAGCCCCUGUCAGAUUCUGGUGAAUCUGCGAGUACUGCUGUGUAUCCC, the self-cleavage was 0.04. For UAACAGGGGGCCACAGCAGAAUCGUUCACGUCGCAGCCCCUUUCAGAUUCUGGUGAAUCUGCGAAUUCAGCUGUAUAUCUC, the self-cleavage was 0.12. Variant UAACAGGGGGCCACAGCAGAAGAGUUCACGUCGCAGCCCCUGUCAGGUUCUGGUGAAUCUGCGAAUUCUGCAGUAUAUCUC has a self-cleavage of 0.12. In the case of UAACAGGGGGCCACAGCAGAAGAGUUCACGUCGCAGCCCAUGUCAGAUUCUGGUGAAUCUGCCAAUUCUGCUGUAUAUCUC, the self-cleavage is reported as 0.07. UAACAGGGGGCCACAGCAGAAGAGUUCACGUCGCAGCCCCUGUCAGAUUCUGGUGAGUCUGCGAACUCUGCUGUAUAUCUC showed a self-cleavage of 0.13. In the case of UAACAGGGGGCCACAGCAGAAGAGUUCGCGUCGCAGCCCCUGUCUGAUUCUGGUGAAUCUGCGAAUUCUGCUGUAUAUCUC, the self-cleavage is reported as 0.14. UAACAGGGGGCCACAGCAGAAGAGUUCACGUCGCAGCCCCUGUCAGUUUCUGGUGAAUCUGCGAAUUCUGCUGUAAAUCUC gave a self-cleavage of 0.23. In the case of UAACAGGGGGCCACAGCAGAACCGUUCACGUCGCAGCCCCUGUCAGAUUCUGGUGAAUCUGCGAAUUCUGCUGUAUAACCC, the self-cleavage is reported as 0.19. Variant UAACAGGGGGCCACAGCAGAAUCGUUCACGUCGCAGCCCCAGUCAGAUUCUGGUGAAUCUGCGAAUUCUGCCGUAUAUCUC has a self-cleavage of 0.17. Variant UAACAGGGGGCCACAGCAGAACCGAUCACGUCGCAGCCCCUGUCAGAUCCUGGUGAAUCUGCGAAUUCUGCUGUAUGUCUC has a self-cleavage of 0.07. For UAACAGGGGGCCACAGCAGAAUCGUUCACGUAGCAGCCCCCGUCAGAUUCUGGUGAAUCUGCGAAUUCUGCUGUAUAUCUC, the self-cleavage was 0.13. For UAACAGGGGGCCACAGCAGAAGAGUUCACGUCGCAGCCCCUGUCUGAUUCCGGUGAAUCUGCGUAUUCCGCUGUAUAUCUC, the self-cleavage was 0.07. In the case of UAACAGGGGGCCACAGCAGAACCGUUCACGUCGCAGCCCCCGUCAGAUUCAGGUGGAUCUGCGAAUUCUGCAGUAUACCUC, the self-cleavage is reported as 0.06. In the case of UAACAGGGGGCCACAGCAGAACCGAUCACCCCGCAGCCCCUGUCAGAUUCUGGUGAAUCUGCGAAUCCUGCUGUAAAACUC, the self-cleavage is reported as 0.05. Work on UAACAGGGGGCCACAGCAGAAGAGUUCUCGUCGCAGCACCUGUCAGAUUCUGGUGAAUCUGCGAAUUCGGCUGUAUAUCUC yielded a self-cleavage of 0.1. UAACAGGGGGCCACAGCAGAACCGAUCACGUCGCAGCCCCCGUCAGAUUCUGGUGUAUCUGCGAUUUCUGCUGUAUAUCUC gave a self-cleavage of 0.1. With UAACAGGGGGCCACAGCAGAAGAGUUCACGUCGCAGCCCCUGUUAGAUUCUGGUGAAUCAGCGAAUUCUGCCGUAUAUCUC the self-cleavage was 0.16. Variant UAACAGGGGGCCACAGCAGAAACGUGCACGUCGCAGCCCCUGUCAGAUCCUGGUGAAUCUGCGAAUUCUGCUGUAUAUCUC has a self-cleavage of 0.18. UAACAGGGGGCCACAGCAGAAGAGUUCACGUCGCAGCCCCUCUCAGAUUCUGGUGAAUCUGCGAAUUCUGCAGCAUAUCAC showed a self-cleavage of 0.07. UAACAGGGGGCCACAGCAGAAACGUUCACGUCGCAGCCCCUGACUGGUUCUGGUGGAUCAGCGAAUUCUGCUGUAUAUCUC showed a self-cleavage of 0.05. Work on UAACAGGGGGCCACAGCAGAAGAGUUCACGUCGCAGCCCCUGUCAGAUUCUGGUCAAUCUGCGAAUUCCGCUGUAUAUCUC yielded a self-cleavage of 0.18. With UAACAGGGGGCCACAGCAGAAACGUUCACGUCGCAGCCCCAGUCAGAUUCUGGUGGACCUGCGAAUUCCGCCGUAUACCUC the self-cleavage was 0.07. Work on UAACAGGGGGCCACAGCAGAACCGUUCACGUCGCAGCCCCUGUCAGAUACUGGUGAACCUGCGAAUUCUGCUGUAUAUCUC yielded a self-cleavage of 0.14. For UAACAGGGGGCCACAGCAGAAGAGCCCACGUCGCAGCCCCUGUCAGAUUCUGGUGAAUCUGCGAAUUCUGCUGUAUAUCUC, the self-cleavage was 0.2. UAACAGGGGGCCACAGCAGAACCGUCCACGUCGCAGCCCCGGUCGGAUUCUGGUGAGUCUGCGAAUUCUGCUGUAUAUCUC showed a self-cleavage of 0.05. Variant UAACAGGGGGCCACAGCAGAAACGUCCACGUCGCGGCCCCUGCCGGAUUCUGGUGAAUCUGCGAAUUCUGCUGUAUAUCUC has a self-cleavage of 0.14. In the case of UAACAGGGGGCCACAGCAGAAGAGUUAACGUCGCAGCCCCUGUCAGAUCCUGGUGAAUCUGCGAAUUCUGCUGUAUAUCUC, the self-cleavage is reported as 0.32. For UAACAGGGGGCCACAGCAGAAACGUUCACGCCGCAGCCCCUGUCAGAUUCUGGAGAAUCCGCGAAUUCUGCUGUAUAUCUC, the self-cleavage was 0.19. UAACAGGGGGCCACAGCAGAAUCGUUCACGUCGCUGCCCCUGUCAGAUUCUGGUGAAUCAGCGAAUUCUGCUGUAUAUCUC showed a self-cleavage of 0.13. In the case of UAACAGGGGGCCACAGCAGAAUCGUUCACGUCGCAGCCCCUGUCAGAUUCUGGUGAGUCUGCGAAUUCUGCCGUAUAUCUC, the self-cleavage is reported as 0.25. UAACAGGGGGCCACAGCAGAAUCGUUCACGUCGCAGCCCCUGUCAGAUUCGGGUGAAUCUGCGAAUUCUGCAGUAUACCUC showed a self-cleavage of 0.08. UAACAGGGGGCCACAGCAGAAACGUUCACGUCGCAGCCCCUGCCAGACUCUGGUGAACCUGCGUAUUCUGCUGUAUAUCUC gave a self-cleavage of 0.32. With UAACAGGGGGCCACAGCAGAAACGUUCACGUCGCAGCCCCAGUCGGAUUCUGGUGAAUCUGCGAAUUCUGCUGUAUAUCUC the self-cleavage was 0.12. Work on UAACAGGGGGCCACAGCAGAACCGUUCGCGUCGCAGCCCCUGUCAGAUUCAGGUGAAUCUGCGAAUUCUGCUGUAUAUCUC yielded a self-cleavage of 0.18. With UAACAGGGGGCCACAGCAGAAUCGUUCACGUCGCAGCCCCUGUCAGACUCUGGUGAAUCUGCGAAUUCAGCUGUAUAUCUC the self-cleavage was 0.06. UAACAGGGGGCCACAGCAGAAUCGUACACGUCGCGGCCCCUGUCAGAUUCUGGUGUAUCUGCGAAUUCUGCUGUAUAUCUC gave a self-cleavage of 0.07. In the case of UAACAGGGGGCCACAGCAGAACCGUUCACGUCGCAGCCCCUGUCAGACUCUGGUGAAUCUGCGAAUUCUGCUGUAUAACUC, the self-cleavage is reported as 0.13. Work on UAACAGGGGGCCACAGCAGAACCGUUCACGUCGCAGCCUCUGUCAGAUUCUGGUGAAUCUGCGUAUUCUGCUGUAUAUCUC yielded a self-cleavage of 0.14.
